The supplement of paper PMC4466236
The full ranking holds about 33,000 sequences; the median of “E-score (dimensionless, -0.5 to 0.5)” is about -0.058, and the highest 2% start at about 0.35. This is one part of the list.

Test system: MvaT
Experiment: PBM 8-mer E-score (mean of HK and ME arrays) (E-score (dimensionless, -0.5 to 0.5)); higher = stronger relative binding preference; most listed sequences are background and not binding sites
Experimental: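 Protein binding microarray: GST-tagged full-length MvaT (P. aeruginosa PAO1) bound to two universal double-stranded 60-mer arrays (ME and HK), each with a constant 25-mer primer and a variable 35-mer region covering all 8-mers. The 8-mer E-score (rank-based, range -0.5 to 0.5, >0.45 = specific binding) is the mean of the two arrays.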

Row | Sequence | PBM 8-mer E-score
1 | CGAACAGA | 0.106
2 | ACCGACAT | 0.0669
3 | GTCGCGAA | -0.262
4 | ACCAAACC | 0.102
5 | GTCTATGA | 0.0453
6 | CCGGCAAG | -0.227
7 | AAATATTG | 0.306
8 | AATGATTA | 0.272
9 | AAGGATCC | -0.244
10 | GGCGACAC | -0.0493
11 | CGTCTCGA | -0.328
12 | CACCGTTA | 0.0907
13 | AGGCTAAA | -0.0289
14 | AAGGATGT | 0.101
15 | GGCGGGTA | -0.104
16 | AGTTCATC | 0.06
17 | CAAAACAA | 0.165
18 | AGGCGCTA | -0.3
19 | CCGCCCAC | -0.254
20 | CACTCATG | -0.225
21 | CTTGCACC | -0.0295
22 | ACGCACAG | -0.209
23 | GACATTCC | 0.0456
24 | GTTGTGAA | 0.0703
25 | ACCAAGTA | 0.11

Row | Sequence | PBM 8-mer E-score
26 | TCCTCTCA | -0.17
27 | GATGGAAA | -0.0898
28 | ACGGGAAT | 0.147
29 | CTATTGTC | 0.12
30 | ATTTACTA | 0.245
31 | GTATATGA | 0.245
32 | ACGGCAGG | -0.153
33 | CTCTCCCA | -0.277
34 | GTTGGAGA | -0.0131
35 | CCGGATAA | 0.0701
36 | GGGTTCAA | -0.0571
37 | ATTTTTCG | 0.179
38 | GATGGGGC | -0.215
39 | ACCCGCGC | -0.241
40 | CGACCTAC | -0.289
41 | CCAAACTC | 0.0276
42 | AACGCTCG | -0.192
43 | CCGTACAG | -0.147
44 | AAAATCGC | 0.0598
45 | CGGGGAAC | -0.175
46 | GGCCTACA | -0.126
47 | GCCCACCC | -0.118
48 | CTGGGGTA | 0.0191
49 | CTGTTCGC | -0.0873
50 | GTTACTAA | 0.252

Row | Sequence | PBM 8-mer E-score
51 | ATGGCCAT | -0.141
52 | AATCGCCT | -0.165
53 | ATACCGTA | 0.135
54 | GGGTCTAA | -0.173
55 | GTCGGGTA | -0.152
56 | CTTAGATA | 0.152
57 | GCGTTAGC | -0.247
58 | ACCCGAAG | -0.237
59 | CACTTTCC | -0.0236
60 | TGTGTAAA | 0.188
61 | ACCGTAGT | -0.0817
62 | ATCATAGG | -0.112
63 | AACAATCA | 0.205
64 | ATGAATTC | 0.164
65 | AAACCCAA | 0.0762
66 | CAATCACA | 0.0485
67 | GTCTGGCA | -0.105
68 | AACTTAGG | 0.182
69 | GACGTTAA | -0.00377
70 | TCAACTAA | 0.205
71 | ACGATAGG | -0.176
72 | AGAGTAAC | 0.0298
73 | CCATACAA | 0.0466
74 | AAAAATCA | 0.0153
75 | GTTCAGGA | 0.0183

Row | Sequence | PBM 8-mer E-score
76 | CCGAAAAA | 0.0426
77 | TGTTCAAA | 0.123
78 | AGGTGTCA | -0.255
79 | GGGTGCGA | -0.091
80 | CTTAGGAA | -0.0904
81 | GAGACGAC | -0.321
82 | CAAATTAC | 0.218
83 | CTATATCA | 0.16
84 | GGTGGACA | -0.0734
85 | AAATTCGG | 0.184
86 | ATAGAGTG | 0.0326
87 | CTTGATTA | 0.143
88 | ATGACCAG | -0.114
89 | AGATGAAC | -0.0155
90 | ACGTTCGA | -0.171
91 | AAAATGTA | 0.206
92 | CTTTCATA | 0.206
93 | AAGCCTCC | -0.309
94 | GTGACAAC | -0.0216
95 | TAGGGAAA | 0.109
96 | CTGTGTAA | 0.0513
97 | AATCATAT | 0.244
98 | CAGGATAC | 0.0289
99 | GAAAGACC | -0.188
100 | CGACTCTC | -0.224

Row | Sequence | PBM 8-mer E-score
101 | ACGGTTCG | -0.0531
102 | GCTAGAGA | -0.188
103 | AAAATAGG | 0.107
104 | CCGGCGCC | -0.254
105 | GAGATGAA | -0.165
106 | TATCGAGA | 0.0936
107 | AGAGCAGG | -0.203
108 | GGTAGCCA | -0.126
109 | CCCAGGGG | -0.294
110 | ACAAGACT | 0.0999
111 | AAGTTGCG | 0.272
112 | AATGTTGC | 0.16
113 | ATAGCAAT | 0.206
114 | CGGGGTTA | -0.124
115 | GGTTGCGA | -0.115
116 | AGATTGGC | -0.0202
117 | AAGGCCGC | -0.155
118 | CCCGCTCC | -0.318
119 | CAGGCACG | -0.33
120 | GCTAACCA | -0.0732
121 | AGCCCTAG | -0.252
122 | CGGCTCAA | -0.0692
123 | TCACCTCA | -0.163
124 | TATTGTAA | 0.379
125 | GGATTCAC | -0.0735

Row | Sequence | PBM 8-mer E-score
126 | ATTGGCTG | 0.0902
127 | AGGCCTCC | -0.302
128 | GAGCTTAC | -0.164
129 | GGAGGCCC | -0.342
130 | CGCCGGGC | -0.236
131 | AAGTCGCT | -0.049
132 | ATGCTAAT | 0.156
133 | CATTAAAA | 0.201
134 | CGTGATGA | -0.182
135 | CTTCGAGC | -0.301
136 | AAAATCTC | -0.0772
137 | ATTCGCCA | 0.108
138 | CTGACCAC | -0.0732
139 | GCCAAGAC | -0.161
140 | GCTCTTAA | 0.139
141 | GGGGTAGA | -0.0957
142 | CCTGTGAA | -0.15
143 | GATAGTCA | -0.178
144 | GTATGGAA | 0.123
145 | AATAGCTA | 0.202
146 | CCACCCAG | -0.0954
147 | CCGCCAAA | -0.0702
148 | AACTACAC | 0.168
149 | TACACAAA | 0.0367
150 | GGGCTCCA | -0.168

Row | Sequence | PBM 8-mer E-score
151 | CATATTCC | 0.122
152 | CAGGTACA | -0.0839
153 | ATCTATAA | 0.209
154 | AAAGCATA | 0.0331
155 | GAACCATC | -0.0791
156 | CACGCGGA | -0.0742
157 | CCCTGACG | -0.251
158 | CCCGGGGC | -0.278
159 | ATGTACAC | 0.164
160 | GCGGATAA | 0.184
161 | AACTCAGT | 0.093
162 | GACCAAAA | -0.0649
163 | ATGTAGCA | 0.078
164 | TAAAGTCA | 0.182
165 | TACCAGGA | -0.0685
166 | AACCTCAG | -0.11
167 | AAGCAAGG | -0.114
168 | GAGGATGC | -0.303
169 | GATGCCCA | -0.195
170 | CAAAAGAC | -0.081
171 | ACTATATG | 0.306
172 | TTAGTGAA | 0.217
